Laboratory results taken from PubChem BioAssay AID1631 (National Center for Advancing Translational Sciences (NCATS), 2009).
Screen size: about 260,000 compounds; about 890 (0.34%) were called active. This list was built around the results that the source calls inconclusive (neither active nor inactive); the mix of calls is not that of the screen. Calls come from the whole dose curve; as a rule, active = well fitted activation curve with a large enough effect; inconclusive = small, poorly fitted or top-dose-only effect; inactive = no such curve, though single readings can be large or run the other way. No potency is given beside an inconclusive call; the fits are too rough.
% is set by controls: 0 for no effect and ±100 for the full control effect; potency is the fitted concentration of half-maximal effect; tags give direction and shape of the fitted curve.
Note: nearly all actives have a fitted effect of over 55% in size.

Each molecule was assayed against Pyruvate kinase PKM (Homo sapiens) (UniProt P14618) (assay: qHTS Assay for Activators of Human Muscle isoform 2 Pyruvate Kinase). Conditions: purified PKM2, Kinase-Glo ATP luminescence; Potency: activation; activation: at 57.5 µM (top of the series), 0% is enzyme alone, no compound.
Chain of UniProt P14618 (P14618 whole entry, looked up, canonical isoform): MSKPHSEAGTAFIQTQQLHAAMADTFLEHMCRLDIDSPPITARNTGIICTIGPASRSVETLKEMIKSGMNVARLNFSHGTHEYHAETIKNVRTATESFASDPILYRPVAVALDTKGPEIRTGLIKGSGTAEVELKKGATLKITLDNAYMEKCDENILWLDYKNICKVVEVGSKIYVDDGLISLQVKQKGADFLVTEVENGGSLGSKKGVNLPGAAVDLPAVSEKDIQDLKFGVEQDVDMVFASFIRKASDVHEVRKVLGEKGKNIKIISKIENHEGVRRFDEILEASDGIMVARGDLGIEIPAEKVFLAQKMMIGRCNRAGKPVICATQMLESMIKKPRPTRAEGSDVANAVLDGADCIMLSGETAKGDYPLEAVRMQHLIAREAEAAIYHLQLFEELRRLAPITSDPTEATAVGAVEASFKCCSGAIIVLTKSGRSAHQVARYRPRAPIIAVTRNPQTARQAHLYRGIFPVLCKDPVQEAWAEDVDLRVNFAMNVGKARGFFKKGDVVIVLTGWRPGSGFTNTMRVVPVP
Outline: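 hPK-M2, >95% pure; 0.1 mM ADP / 0.5 mM PEP final; imidazole pH7.2 buffer w/ 7 mM MgCl2, 50 mM KCl; 1 h RT; Kinase-Glo lum. Intermediate enzyme activity for dual inhibitor/activator qHTS.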
With `O=C(NCc1cccs1)C1CCN(S(=O)(=O)c2ccc(Cl)cc2)CC1` the Potency was active: 14.1 µM. In the case of `N/C(=N\N=C\c1ccc(Br)o1)c1nonc1N`, the “activation” value is reported as inactive: 9%. For `O=C(O)CCn1cc(C2CC(c3ccccc3)=NN2c2ccccc2)c(-c2ccccc2)n1` (stereo not drawn), the Potency was inconclusive [rising, single point]. `CCNc1nc(NCC)nc(OCCOC(=O)c2ccccc2)n1` was tested, and the Potency was active: 14.1 µM. `C=CCN1CCN(C(c2cc(OC)ccc2OC)c2nnnn2CC2CCCO2)CC1` (stereo not drawn) was tested, and the “activation” value was inactive: -16.1%. For `C=CCc1cccc(CNc2nc3ccccc3n2C)c1O`, the Potency was active: 31.6 µM. `CC(=O)Nc1ccc(N2C(=O)CC(N3CC(C)OC(C)C3)C2=O)cc1` (stereo not drawn) was tested, and the “activation” value was inactive: -3.52%. `COc1ccccc1NC(=O)CSc1nn2c(=O)c(C)nnc2s1` was tested, and the “activation” value was inactive: -2.14%. In the case of `Cc1ccccc1OCc1nnc2c3cnn(C)c3ncn12`, the Potency is reported as active: 28.2 µM. In the case of `CC(Oc1ccc(Br)cc1)C(=O)Nc1nc(-c2ccccn2)cs1` (stereo not drawn), the “activation” value is reported as inactive: -22.2%. `COc1cc2c(cc1OC)CN(C(=O)c1ccc3[nH]c(C)c(C)c3c1)CC2` was tested, and the Potency was inconclusive [rising, single point]. For `Cn1c(SCc2ccccc2)nc(C(F)(F)F)cc1=O`, the Potency was inconclusive [rising, partial curve]. `O=C(Nc1cccn(Cc2c(Cl)cccc2Cl)c1=O)C1CC1` was tested, and the Potency was inconclusive [rising, single point]. With `CNNC(=S)NCCC1=CCCCC1` the Potency was inconclusive [rising, single point]. `O=C(c1ccco1)N1CCN(S(=O)(=O)c2ccc(Br)s2)CC1` was tested, and the Potency was inconclusive [rising, single point]. With `O=S(=O)(NCc1ccco1)c1cccc(S(=O)(=O)N2CCCCC2)c1` the Potency was inconclusive [rising, single point]. `CCc1cc(=O)n2c([nH]c3ccccc32)c1C#N` was tested, and the “activation” value was inactive: -10.5%. With `Cc1cc2cc(CN(Cc3ccc4c(c3)OCO4)C(=O)c3ccco3)c(=O)[nH]c2cc1C` the Potency was inconclusive [rising, partial curve, poor fit]. In the case of `CC(=O)c1sc(NC(=O)c2ccc(Cn3cc(Br)cn3)o2)nc1C`, the Potency is reported as active: 11.2 µM. For `Cn1nnnc1SCC(=O)Nc1nc(-c2ccccc2)c(-c2ccccc2)o1`, the “activation” value was inactive: 2.9%. For `Cc1nc([N+](=O)[O-])c(Sc2nc3ccc([N+](=O)[O-])cc3[nH]2)n1Cc1ccccc1`, the Potency was inconclusive [rising, partial curve]. `Cc1cccc(C(=O)c2cnc3ccccc3c2-c2ccccc2)c1` was tested, and the “activation” value was inactive: -18.7%. With `Cn1c(SCC#N)nnc1-c1ccc2c(c1)OCO2` the Potency was inconclusive [rising, single point].
